# Reference: article PMC4336329 (PLoS ONE, 2015)
# Hit rate of the full screen: of about 310,000 compounds, about 2,200 (0.71%) showed an effect of 50% or more. The effect is printed as a negative number. The list shows a part of the results.
# Target: human ether-à-go-go-related gene (hERG) potassium channel (human, UniProt Q12809)
# Assay: primary screen, population patch clamp on CHO cells stably expressing hERG
# Chain of human ether-à-go-go-related gene (hERG) potassium channel (Q12809 whole entry, looked up): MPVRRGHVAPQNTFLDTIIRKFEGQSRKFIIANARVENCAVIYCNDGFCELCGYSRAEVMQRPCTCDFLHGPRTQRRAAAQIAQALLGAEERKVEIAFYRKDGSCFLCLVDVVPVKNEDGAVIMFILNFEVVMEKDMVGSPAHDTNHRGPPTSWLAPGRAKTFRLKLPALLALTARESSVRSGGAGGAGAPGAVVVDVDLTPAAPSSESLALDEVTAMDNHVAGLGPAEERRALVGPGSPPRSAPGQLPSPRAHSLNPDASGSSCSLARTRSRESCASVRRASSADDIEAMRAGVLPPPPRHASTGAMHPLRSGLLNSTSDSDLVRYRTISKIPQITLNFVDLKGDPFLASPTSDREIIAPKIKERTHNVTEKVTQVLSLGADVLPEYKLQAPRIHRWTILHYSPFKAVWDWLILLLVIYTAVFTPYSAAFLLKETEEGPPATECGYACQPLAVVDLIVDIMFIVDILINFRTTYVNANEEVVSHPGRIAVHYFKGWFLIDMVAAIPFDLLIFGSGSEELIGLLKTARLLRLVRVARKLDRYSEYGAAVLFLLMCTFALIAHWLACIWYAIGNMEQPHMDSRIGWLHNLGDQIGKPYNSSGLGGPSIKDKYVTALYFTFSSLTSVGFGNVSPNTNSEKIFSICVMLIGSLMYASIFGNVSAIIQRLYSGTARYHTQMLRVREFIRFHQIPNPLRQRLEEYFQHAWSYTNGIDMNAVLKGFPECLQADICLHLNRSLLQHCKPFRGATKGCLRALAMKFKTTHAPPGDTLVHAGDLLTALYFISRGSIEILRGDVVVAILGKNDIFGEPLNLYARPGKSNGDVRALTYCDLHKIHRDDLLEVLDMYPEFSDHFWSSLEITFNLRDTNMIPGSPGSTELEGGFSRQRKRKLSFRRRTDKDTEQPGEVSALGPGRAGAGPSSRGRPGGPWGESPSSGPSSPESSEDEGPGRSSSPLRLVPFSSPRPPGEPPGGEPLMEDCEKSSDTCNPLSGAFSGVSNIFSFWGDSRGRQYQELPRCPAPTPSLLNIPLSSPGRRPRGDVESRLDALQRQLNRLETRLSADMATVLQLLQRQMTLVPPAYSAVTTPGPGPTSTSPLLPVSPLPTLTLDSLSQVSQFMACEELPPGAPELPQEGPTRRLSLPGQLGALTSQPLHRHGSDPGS
row,Compound,"hERG current change (%, negative = inhibition) at 1uM"
1,CC(C)(C)c1ccc(C(CC(=O)O)NC(=O)Cc2ccccc2)cc1 (centres unmarked),14%
2,O=C(NC(=S)Nc1ccc(O)cc1)c1cncc(Br)c1,15.3%
3,COc1ccccc1CN(C)C(=O)c1ccc2c(c1)NC(=O)CS2,12.9%
4,CC#CCN(CC#CC)S(=O)(=O)c1ccc(-n2cnnn2)c(OC)c1,-2.59%
5,Cc1cc(C)n(-c2cc(-n3nc(C)cc3C)ncn2)n1,0.604%
6,O=C(Nc1cccc(-c2cn3ccccc3n2)c1)c1cccc(Cl)c1,6.61%
7,CCSc1nc2c(c(=O)[nH]1)C(c1ccc(C)cc1)C1=C(CCCC1=O)N2 (centres unmarked),8.43%
8,O=c1c2ccccc2c(C=NCc2ccccn2)c(O)n1-c1ccccc1,6.58%
9,CCc1nc(SCC(=O)c2cccc([N+](=O)[O-])c2)n[nH]1,7.92%
10,CCCN(CC(=O)Nc1ccccc1C)C(=O)/C=C/c1ccc(OCC)c(OC)c1,-2.59%
11,CC(=O)NS(=O)(=O)c1ccc(NC(=O)NC2CCCCC2)cc1,-0.47%
12,O=C(c1cccc(N2C(=O)C3CC=CCC3C2=O)c1)N1CCCc2ccccc21 (centres unmarked),-16.3%
13,CCOC(=O)/C(=C/c1ccc(OC(=O)c2ccncc2)cc1)C(C)=O,-1.57%
14,O=C(CCc1c[nH]c2ccccc12)N1CCN(c2ccc(F)cc2)CC1,1.71%
15,O=C(/C=C/c1ccccc1Cl)NNC(=O)c1cccs1,21.3%
16,COc1ccc(C2NC(c3ccc(OC)cc3)C([N+](=O)[O-])C(C)(C)C2[N+](=O)[O-])cc1 (centres unmarked),16.9%
17,COc1ccnc(Nc2ccc(C)c(C)c2)c1C#N,14.1%
18,Cn1c(N)c(C(=O)COC(=O)c2ccc(S(=O)(=O)N3CCCCC3)cc2)c(=O)n(C)c1=O,14.6%
19,C/C(=N\NC(=O)CSCc1ccccc1Br)c1cccc([N+](=O)[O-])c1,10.9%

row,Compound,"hERG current change (%, negative = inhibition) at 1uM"
1,COC(=O)c1cc(NC(=O)c2cc(-c3ccc(C(F)(F)F)cc3)oc2C(F)(F)F)ccc1N1CCOCC1,10.6%
2,CCn1nc(NS(=O)(=O)c2ccc([N+](=O)[O-])cc2)c2cc3ccccc3nc21,14.1%
3,Cc1ccc(C(=O)NNC(=O)c2ccccc2O)cc1S(=O)(=O)N1CCCCC1,13.3%
4,COc1ccc2occ(C(C)=O)c2c1,17.5%
5,COCc1ccc(O)c2ncccc12,3.4%
6,Cc1cc(S(=O)(=O)NC(C)C)ccc1OCC(=O)Nc1ccc2c(c1)OCCO2,2.72%
7,O=C(Cc1ccc(Cl)cc1)Nc1cccc(S(=O)(=O)N2CCCCC2)c1,3.87%
8,O=[N+]([O-])c1cc(Cl)ccc1NCCNS(=O)(=O)c1ccccc1,5.63%
9,CCC1(C)Cc2ccccc2-c2nc(NCCCO)n(-c3ccccc3)c(=O)c21 (centres unmarked),-5.83%
10,CCc1ccc(CN(C)CC(=O)Nc2ccc3c(c2)CCC3)cc1,8.43%
11,O=C1OCc2cc(N=Nc3c(O)[nH]c(=O)[nH]c3=O)ccc21,12.2%
12,CCOC(=O)c1c(CN2CCC(C)CC2)oc2ccc(OC)cc12,4.28%
13,CC(=O)N1C(=O)C(=C2C=C(C)OC(C)=C2)c2ccccc21,-3.67%
14,Cc1nc2nc[nH]n2c(=O)c1C/C=C/c1ccccc1,6.92%
15,O=C(CN1CCN(Cc2ccccc2)CC1)Nc1cccc(S(=O)(=O)N2CCCCCC2)c1,-45%
16,CN(C(=O)c1ccc2c(c1)OCCO2)c1c(N)n(Cc2ccccc2)c(=O)[nH]c1=O,15.5%
17,CCN(CC(=O)NCc1ccc(Cl)cc1)C(=O)/C=C/c1ccc(C#N)cc1,-52.1%
18,COc1ccc2[nH]c(=O)c(CNc3ccccc3)cc2c1,29.4%
19,N#C/C(=C\c1ccco1)C(=O)Nc1cccc2ncccc12,4.28%

row,Compound,"hERG current change (%, negative = inhibition) at 1uM"
1,CCNS(=O)(=O)c1ccc(CCC(=O)NCCC2=CCCCC2)cc1,-4.5%
2,CCc1ccc(N2CC(C(=O)NCCC3=CCCCC3)CC2=O)cc1 (centres unmarked),6.39%
3,CCOC(=O)c1c(NC(=O)c2cc(-c3cccc(O)c3)on2)sc(C(C)=O)c1C,25.4%
4,O=C(NC(=S)N1CCN(c2ccccn2)CC1)c1ccco1,17.2%
5,CCOC(=O)C1CCN(C(=O)COc2cccc(C)c2)CC1,11%
6,CC(C)c1cc(NCC2CCCO2)n2c(nc3ccccc32)c1C#N (centres unmarked),0.419%
7,CC(=O)Nc1ccc(S(=O)(=O)NNC(=O)COc2cc(C)ccc2C(C)C)cc1,4.32%
8,O=C(Nc1ccccc1C(=O)N1CCOCC1)c1ccncc1,11.7%
9,Cc1cc(C)c(-c2csc(NC(=O)/C=C/c3cccs3)n2)c(C)c1,0.21%
10,Cc1cc(Oc2ccc(=O)n(C)n2)nc(Oc2ccc(=O)n(C)n2)n1,7.44%
11,O=C(c1ccco1)N(Cc1nc2ccccc2c(=O)[nH]1)C1CCCC1,6.34%
12,Cc1ccc(Nc2nc(N)nc(CSc3nnc(-c4ccncc4)o3)n2)cc1,7.95%
13,N/C(=N\OC(=O)CC1CCCCC1)c1ccc(Cl)cc1,11.5%
14,Cc1ccc(CNC(=O)C2CC(=O)N(CCC(C)C)C2)cc1 (centres unmarked),14.1%
15,Fc1ccc(Cn2nnnc2C(c2ccc(Cl)cc2)N2CC=C(c3ccc(F)cc3)CC2)cc1 (centres unmarked),18.5%
16,O=S(=O)(NCc1ccc(F)cc1)c1cc(Br)ccc1Br,12.2%
17,O=C(Cc1cccc2ccccc12)NN1C(=O)/C(=C\c2cccnc2)SC1=S,11.4%
18,CCOC(=O)c1sc(NC(=O)c2ccc(S(=O)(=O)N3CCOCC3)cc2)nc1-c1ccccc1,14.1%
